The text below walks through data of the RNAGym collection of RNA variant scans (doi:10.7554/elife.90254).

B1: LINE1-full (parent)
chain: UACGUAGGUGGUUUUCCCCUGAUAGUGCUAAGGGGGCCUGGAAGUUUGGACUGGGCAGAGCUCAACACAGCGUGGCAAAGUGGCUGUGGCUAGACUGCCUCUCUGGAUUCCUCGUCACUCAGCAGGGCAUCUCUGAGAGAAAUGCC

Read counts are not given, so values of variants with three or more changes are uncertain.

Variants of B1 are the subject of the series. Kind of series: self-cleavage, relative activity (ratio to wild type); higher = more cleavage; in vitro, sequencing; the parent is a self-cleaving ribozyme.
Consider A78U U100A A107G U115A U119A, for which the self-cleavage came out at 2.61.
Turning to A57C A92U U96A, the self-cleavage worked out at 0.02.
Turning to U23A G75U C99A U109A U112A, the self-cleavage was found to be 0.05.
U39A U112C A140G: the self-cleavage amounted to 0.96.
With A6G U81A G97A U100A, the self-cleavage turned out to be 0.22.
The result for U12C A67U U134A reads 0.02; that for A22G A117G U119C, 0.71.
On to G7U U81C A136U, for which the self-cleavage amounted to 1.67.
The result for U5A A78G G105A reads 1.13; that for A42G U45A G82A, 1.5.
Take A31U U52A A67G U119C A136G: the self-cleavage was found to be 0.
The result for G40U U115C U134A reads 0.61.
As to U1C A43G U115A U143A, the self-cleavage is 0.62.
The result for A67U U81A U102C reads 0.07; that for A24U A30G A78G A136G, 0.71.
Next, U14C G60U C71U G80A: 0.06; A30U G40U G70U A121C: 0.
Consider U9G C37U U85C U91C, for which the self-cleavage is 0.
For the variant C84U U85C U96C, the self-cleavage is 0.
The result for A24U A77U U85C U104C U112A reads 0.26; that for U12C U23C U100C A142G, 1.58; that for A65G G75U U132G, 0.
As to A2G A50G A67U A138G A142G, the self-cleavage stood at 0.13.
Next, A42G A65G A124G: 0.
On to A77G U108G G126A, for which the self-cleavage stood at 2.19.
As for A30C U47A U115A, the self-cleavage stood at 1.57.
The result for U1C A79G U130A reads 1.29; that for A64U A69C A78U U87C U96C U119A A142G, 0.
The result for U23A C63U A64U A65G U143A reads 0.04.
On to A24U C110A U119C, for which the self-cleavage came out at 1.18.
The result for U1A U26C G72A A78G reads 1.15; that for U47C A67C A77G A142U, 0.
Next, G93A U134C A140G: 0.02; A69G A77U U109C A140G: 0.
Next, U1C G32A A94U U102C: 0.09; A30G U52A U132C A142G: 0.8.
On to U15C C28U A138C, for which the self-cleavage worked out at 0.79.
The result for A6G U13C A64G A79G reads 0; that for G88A U91C A138U, 0.08.
The result for U20C C90U A141G reads 0.03.
U52C U130C U143A: the self-cleavage came out at 1.1.
U26C A43U C145U: the self-cleavage was 0.84.
G34A U115A A129G: the self-cleavage amounted to 1.27.
Regarding U104A A124G U143C, the self-cleavage was 0.46.
The result for G114A A117G A142G reads 2.23.
The result for U47C U81C U134A reads 1.97.
Turning to U26C U91C A140G, the self-cleavage was 0.92.
As to G35U U73A A138G, the self-cleavage worked out at 1.61.
With A30U A59G G83U A129G, the self-cleavage came to 0.03.
The result for A2C A78G U81A reads 0.53; that for A43G C68U U85A, 0.02; that for A6G C28U U104C, 0.88.
As to U5C A59G U85C U96A U134C, the self-cleavage is 0.54.
The result for U13A A43G A59G U73A U100C reads 0; that for A24U U85A U112C, 0.13.
For the variant C51A A92G A141G, the self-cleavage came out at 0.06.
Next, G10A U12C U14C U47A A78G U143C: 0.42; U47C U119C G122A A141G: 1.63.
For the variant U13C A67U A69G, the self-cleavage is 0.07.
Next, U9C C71A U143C: 0.57; A78U U96A U104C: 0.09.
The result for U5A U13A U108C reads 0; that for U1A U45G U119C, 0; that for U20C G53A A117G A142U, 1.26.
Next, A2U U29C U39C U45C A138G: 0.48; U108C U134C A138G: 1.67.
In the case of A22G A59U U132C, the self-cleavage came to 1.3.
The result for U29A A65G U102C reads 0.
The result for A24G G75U A140G reads 1.21; that for U29C U39C A42G A117U, 1.71.
The result for G54A U62C U104C U119C reads 0.1.
Turning to U14C U15C U100C U102C A129G, the self-cleavage was 1.31.
The result for C18G G33U U108C reads 1.79; that for A2G G55A A136G, 0.32; that for U46A U62C A77G, 0.04.
Regarding G72A U109A A140G, the self-cleavage came to 1.47.
The result for A31U U81C G106A A141G reads 0.69; that for G55C C71U A92G, 0.04; that for U46C A107G U115A, 1.47.
Take U9C U12C U14C A121U: the self-cleavage turned out to be 0.3.
With U1C A6G U14C G74A U85A U104A U115C U130C, the self-cleavage was found to be 0.
A2G A59G U85C G125A: the self-cleavage worked out at 0.
Next, G53A A57G U108C A124G: 1; G53A A79G U96C: 0.17; U13C C19U A59G G72A: 0.24.
The result for A22G A24U A69U U102A reads 0.09; that for U1A C51U U62A A77G A141G, 0.23.
Next, G11A A92C A94G: 0.12; A57G A64G U134C A141G: 0.
On to U62C C84U G114A, for which the self-cleavage is 0.03.
For the variant U26A A124G U134A, the self-cleavage stood at 0.14.
Consider A94G U100C A140G A141G, for which the self-cleavage was found to be 0.
The result for A2G U102C A124G A138U reads 1.45.
Next, U62C A77G A142G: 0.05; U96A U100C A138G: 0.06.
U15C U23A C28U A42G: the self-cleavage was determined as 0.6.
The result for U47A U73C C99A reads 1; that for U13C G25A A77G, 0.74; that for G49U U102C C110U, 1.08.
Next, U9C U23C A24U A65U A77G U96C: 0; A22G C28A G54A A79G: 0.32; A42G A78G U143C: 1.37.
The result for A30U A43G A92G reads 0.21.
Consider G25C C38A U73A A78G A140G, for which the self-cleavage stood at 0.3.
On to U5C A78G A121U U132C, for which the self-cleavage stood at 2.34.
The result for G8A A31U A124G U130A reads 0.
The result for U9C C17A A94G reads 0.42; that for A42U U52A U73A U100C, 2.42; that for G44A C66U A138U, 0.05.
Take U9A A31U A140G: the self-cleavage came out at 1.09.
The result for G41U G82A U130C A140G reads 2.17; that for A2G U14C A78G U115A, 0.91; that for G88A U108C U109C, 0.03.
The result for U14C G34A U115A G126A C146U reads 1.13; that for U100C A117G G126A U130C C131A, 2.53.
Regarding U14A U47A A67U A140G, the self-cleavage was 0.06.
Regarding U13C U39G A59G, the self-cleavage amounted to 0.34.
The result for C3U U102C U134A reads 1.46; that for U132C U134A A140G, 0.57.
Next, G36C U73C U87A: 0.15.
Next, U47A A65U U119A: 0.19; A31U C61U U132A A138G: 0.12; U9C U47C A64G C90G A142G: 0.11.
Turning to A78U U81A U119C A141G, the self-cleavage turned out to be 2.93.
As for A2G G41A G86A, the self-cleavage was determined as 0.23.
The result for U20C A24G A43G A65U U108C reads 0.
Next, A2G A31G A65G: 0; G27A A59G C123A: 0.1; A69U A78U A94G: 0.04.
Next, U85C U102C A138G: 0.
Consider U20G U87A U104C G126A, for which the self-cleavage was 0.13.
The result for U5A A50G A78U A142G reads 1.2; that for U23C A24G U132A U143C, 0; that for U12C U100C U112A A141U, 2.11.
Next, U5C G35U C120A: 1.03; U15C U20C A50G A65U: 1.23.
The result for U20C U87C C103U A107G U115A reads 0.36.
Consider A22G G25A U26C A57G A64U U130C C145A, for which the self-cleavage is 0.32.
The result for U20C U26G A42G C51U A64G reads 0.26; that for U1A U29C G32U, 0.66.
The result for U23C A69G A117G reads 2.3; that for A2G U20A A50G, 1.44.
The result for A24U G40A U52C reads 1.18.
With G75A A77G U143C, the self-cleavage amounted to 1.01.
Next, U47C A50G C71U: 0.86; U96C A124G C133G: 0.08; U81C U119A A124C: 2.3.
For C19A A57U A67C A117G, the self-cleavage amounted to 0.
The result for U14C A42G C146U reads 1.04.
For the variant A78U U108A U112A, the self-cleavage stood at 0.
The result for U12C U13C A77U U109G A138G reads 0.4; that for U14C A64U A107G A140G, 1.02; that for U13A U29A A67G, 0.43.
Consider U26A A50G U104A G139U, for which the self-cleavage came out at 1.15.
The result for A50U U52A A65G A141G U143C reads 0.07.
As to G8A U29C U45A, the self-cleavage is 1.15.
The result for U12C C19U A79G U119A reads 0.4; that for U20C A59U A67U U108C, 0.29; that for U5G C51U U87C C113U A138G, 0.26.
Take U14C A57G U62C: the self-cleavage came to 0.04.
The result for U5C A24G A43G A78U U85C reads 0; that for G32A A79G U104C, 0.87.
The result for U12G U14C G89A A94G reads 0.1.
Take U12A G89A G135A: the self-cleavage came to 0.02.
The result for A22G U81C A107G A141G reads 1.84.
As for U47A A79U C123U A140G, the self-cleavage turned out to be 1.98.
Next, A57U A59G A121U: 0.06.
